The full ranking holds about 33,000 sequences; the median of “E-score (-0.5 to 0.5)” is about -0.032, and the highest 2% start at about 0.36. The list shows a part of the results.
Each sequence was assayed against T1, Sko1 (UniProt Q02100) (assay: PBM E-score (8-mer binding enrichment) (E-score (-0.5 to 0.5)); higher = stronger / more preferred TF binding; most listed sequences are background and not binding sites). Conditions: protein concentration: 200 nM; construct: GST-full length.
T1 sequence: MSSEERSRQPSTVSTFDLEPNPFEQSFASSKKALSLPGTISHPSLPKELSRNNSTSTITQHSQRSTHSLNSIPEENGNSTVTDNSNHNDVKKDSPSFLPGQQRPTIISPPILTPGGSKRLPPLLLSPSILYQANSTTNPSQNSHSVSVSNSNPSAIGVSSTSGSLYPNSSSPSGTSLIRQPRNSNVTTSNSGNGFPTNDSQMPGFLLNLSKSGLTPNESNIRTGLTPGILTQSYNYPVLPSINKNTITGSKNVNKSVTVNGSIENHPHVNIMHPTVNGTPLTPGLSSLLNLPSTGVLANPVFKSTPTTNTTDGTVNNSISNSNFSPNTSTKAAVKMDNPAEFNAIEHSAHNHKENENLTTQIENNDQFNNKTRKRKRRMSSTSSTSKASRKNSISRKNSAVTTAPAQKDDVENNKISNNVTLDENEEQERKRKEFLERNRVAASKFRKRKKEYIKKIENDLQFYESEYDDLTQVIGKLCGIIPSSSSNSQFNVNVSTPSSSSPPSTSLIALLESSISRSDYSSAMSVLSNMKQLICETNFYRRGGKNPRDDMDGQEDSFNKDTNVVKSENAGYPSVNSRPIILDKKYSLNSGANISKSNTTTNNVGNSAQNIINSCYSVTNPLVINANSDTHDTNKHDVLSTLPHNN
Summary of the method: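 Using PURExpress in vitro transcription/translation, GST-tagged yeast transcription factors were made in full-length or DNA-binding-domain form. These were applied at about 100-200 nM to double-stranded universal all-10-mer Agilent arrays, and bound protein was detected with fluorescent anti-GST. Scans were normalised with masliner before the Universal PBM Analysis Suite assigned E-scores to ungapped eight-base words pooled with their reverse complements.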

Sequence	PBM E-score
ACAAGACG	0.0437
GAAGGTGA	-0.0629
ACTACTGA	-0.0569
GGGATGAA	-0.182
AAAACTTC	0.0632
AGTGCTTC	-0.119
AGCATTAC	0.188
ACTGCCGG	-0.291
AAAGTATC	0.164
ATAAACCA	0.0234
ATCGCCTC	-0.0716
AATCTCCG	-0.111
TGCCTGAA	0.052
CTCGGCCC	-0.282
ACTCACAG	-0.115
CTCCGATC	-0.329
AGGAATAG	0.0594
GAGGCATA	-0.0336
CATTTCAA	0.182
GCTGGAAA	-0.163
AGCTGACC	-0.104
CGCGAACG	0.0557

Sequence	PBM E-score
AAACGATC	-0.0574
CGGCCTCC	-0.213
GAATAGGC	-0.153
AAGGCCGA	-0.188
ACCTACGC	0.293
AGTAACAT	0.122
AGACGTAG	0.382
ATGGACGC	0.233
GATCCTCA	-0.00364
AGGGCACA	-0.0631
GGGATCCC	-0.368
ATGCCAGC	-0.11
CAGTCTCA	-0.0507
AGCATGAT	0.0123
ACACTGAA	0.0856
GCGACAAA	0.0546
ATCTCAAA	0.156
GATATCAA	0.166
GAACTGCA	-0.0801
GACTCCAA	-0.102
TGTGGCAA	-0.0674
CATGGGAG	-0.188

Sequence	PBM E-score
CAAGACTA	0.0299
CCTGACCA	-0.0279
GCTACAGA	-0.2
CGCGGTAG	-0.0454
CAGACTTA	0.0358
AGATTGAA	0.00483
TCTCCGAA	-0.136
AACATACC	0.0441
TCATACCA	0.201
ACAGGATA	0.00994
GCGGTAAA	0.0288
ATACCTCC	-0.333
ACGCTCCA	-0.0856
CCCGCCCG	-0.126
ACCTCCCC	-0.277
ATTGTCTA	0.158
ATCTGATA	-0.155
GCAATCGC	-0.0251
AATGGCTC	-0.0633
CGTAGGCA	0.0648
CTAATTGA	0.0758
CCACAATA	-0.0383

Sequence	PBM E-score
ATAACAAC	0.107
ATATTAAC	0.192
GCTCGTTA	-0.131
CCTAACTC	0.022
CAAACGTC	0.329
GCATACCC	-0.185
CTCTGCCA	-0.0901
CTCGGACA	-0.211
CAGTCTCG	-0.0725
ATACAGGG	-0.113
CTCTACTA	-0.0524
ATACGCGA	0.281
AATACGAT	0.224
CCGATGCA	-0.13
GTTGGCGA	-0.086
CCGGATCA	-0.251
CCTGTGCC	-0.224
GATAGCGA	0.0432
ATACCGCA	-0.0236
CTGGTCCA	-0.182
